Laboratory results from PubChem BioAssay AID624296 (National Center for Advancing Translational Sciences (NCATS), 2012).
“And” between values parts separate entries of the source, which are not always exact repeats. Equal values may be shown once. About 9,900 (2.8%) of roughly 350,000 compounds were called active. The shares of active, inactive and inconclusive entries below differ from those in the screen. Calls follow the shape of the dose curve; as a rule, active = well fitted activation curve with a large enough effect; inconclusive = small, poorly fitted or top-dose-only effect; inactive = no such curve, though single readings can be large or run the other way. Potencies beside an inconclusive call are fits to weak or partial responses and may not hold up.

Experiment: A quantitative high throughput screen for small molecules that induce DNA re-replication in MCF 10a normal breast cells. Also: nearly all actives have a fitted effect of over 50% in size. As to activity, positive = re-replication: % of control where 0% means no effect.
Conditions: MCF 10A DNA re-replication, Hoechst nuclear intensity, 48 h; activity, positive = re-replication: at 46.1 µM (top of the series)
Potency is read from the fitted curve at half-maximal effect; tags tell the direction and shape of the fitted curve.

Row | Compound | Potency | activity, positive = re-replication
1 | C/C(NC1CCCC1)=C(/C#N)C(N)=O | inconclusive: 14.6 µM [activator, partial curve, poor fit] | 
2 | O=C(Nc1cccc(C(=O)N2CCOCC2)c1)c1ccccc1Cl | inactive | 
3 | COc1ccc(C(=O)/C(C#N)=N/Nc2ccc([N+](=O)[O-])cc2)cc1 | inconclusive: 0.184 µM [activator, full curve, poor fit] | 
4 | CN(C)c1ccc(C(=O)Nc2cccc(S(=O)(=O)N3CCCC3)c2)cc1 | inconclusive: 29.1 µM [activator, partial curve, poor fit] | 
5 | CC(C)C(c1nnnn1Cc1ccco1)N1CCN(C2CCCC2)CC1 (stereo not drawn) | inconclusive: 29.1 µM [activator, single point] | 
6 | Cc1nc(CN(C)C(=O)CC2C(=O)NCCN2Cc2ccc(-c3ccccc3)cc2)cs1 (stereo not drawn) | inactive | 
7 | Cc1ccc(NC(=O)c2ccc(S(=O)(=O)N3CC(C)CC(C)C3)cc2)cc1S(=O)(=O)N1CCOCC1 (stereo not drawn) | inconclusive: 4.11 µM [activator, full curve] | 
8 | CCOc1ccc(NC(=O)COC(=O)c2cc([N+](=O)[O-])ccc2N2CCOCC2)cc1 | inactive | 
9 | CC(=O)Nc1cc2c(c(Cl)c1Cl)-c1ccccc1C2=O | inconclusive: 29.1 µM [activator, single point] | 
10 | COc1ccc(-c2csc3ncnc(N4CCN(S(=O)(=O)c5cccc(C(F)(F)F)c5)CC4)c23)cc1 | inconclusive: 7.31 µM [activator, partial curve, poor fit] | 
11 | Nc1n[nH]c(N)c1N=Nc1ccccc1 | inactive | 
12 | COCCNC(=O)CN1C(=O)/C(=C/c2ccccc2)Oc2ccc(C(C)(C)C)cc21 | inconclusive: 20.6 µM [activator, partial curve, poor fit] | 
13 | CCOC(=O)c1sc(NC(=O)COC(=O)Cn2cnc3ccccc32)c(C(=O)OCC)c1C | inconclusive: 35.5 µM [activator, single point] | 
14 | CCSc1nnc(N2C(=O)c3ccc(C(=O)c4ccc(C(=O)O)cc4)cc3C2=O)s1 | inconclusive: 29.1 µM [activator, single point] | 
15 | NS(=O)(=O)c1ccc(N/C=C\C(=O)c2cccc3ccccc23)cc1 | inconclusive: 14.6 µM [activator, partial curve] | 
16 | C[C@@H]1C[C@H]2[C@@H]3CCC4=CC(=O)C=C[C@]4(C)[C@@]3(Cl)[C@@H](O)C[C@]2(C)[C@@]1(OC(=O)c1ccco1)C(=O)CCl | inactive | 
17 | CCN1CCN(c2ncc3c(n2)CC(c2cc(OC)c(OC)c(OC)c2)CC3=O)CC1 (stereo not drawn) | active: 20.6 µM | 
18 | Cc1ccc(C(=O)C(C(=O)/C=C/c2ccccc2)=C2SCCCS2)cc1 | active: 20.6 µM | 
19 | CC1=Nc2ccccc2/C1=C/c1sc(=N)n(-c2nccs2)c1O | inconclusive: 2.82 µM [activator, full curve, poor fit] | 
20 | COc1ccc(S(=O)(=O)c2snnc2C)cc1 | inactive | 
21 | CN1CCCN(C(c2ccccc2)c2ccc(Cl)cc2)CC1 (stereo not drawn) | inconclusive: 18.8 µM [activator, partial curve, poor fit] and inconclusive: 29.1 µM [activator, single point] | 
22 | Cc1nc(N/N=C/c2ccc(O)cc2)c2cnn(-c3ccccc3)c2n1 | inconclusive: 29.1 µM [activator, single point] | 
23 | CC1(C)Cc2[nH]c(=S)c(C#N)cc2CO1 | inconclusive: 20.6 µM [activator, single point] | 

Row | Compound | Potency | activity, positive = re-replication
24 | CCC(C)NC(=O)C1CCN(c2nc(C)cc(C)n2)CC1 (stereo not drawn) | inactive | 
25 | Nc1ncnc2c(C3OC(CO)C(O)C3O)scc12 (stereo not drawn) |  | inconclusive: 48.9% [activator]
26 | COc1cccc(N2CCN(C(=O)CC(C)(C)CC3=NS(=O)(=O)c4ccccc4N3)CC2)c1 | inconclusive: 29.1 µM [activator, single point] | 
27 | O=C(Nc1ccccn1)C(=O)Nc1ccccn1 | inactive | 
28 | O=C(Nc1nc(-c2cccs2)cs1)c1ccco1 | inconclusive: 20.6 µM [activator, single point] | 
29 | COc1cc2c(cc1OC)C(c1ccc(SC)cc1)CC(=O)N2 (stereo not drawn) | active: 4.61 µM | 
30 | COc1ccc(S(=O)(=O)N(C)c2nc3ccccc3n3c(CC(C)C)nnc23)cc1 | active: 11.6 µM | 
31 | c1nc(SSc2ncnc3nc[nH]c23)c2[nH]cnc2n1 | inconclusive: 9.2 µM [activator, partial curve, poor fit] | 
32 | Cc1ccc(-n2ncc(Br)c(Br)c2=O)cc1 | inconclusive: 1.3 µM [activator, full curve, poor fit] | 
33 | O=C(CCN1C(=O)c2ccccc2S1(=O)=O)Nc1cccc2ccccc12 | inactive | 
34 | COCCCNC(=O)c1c(NC(=O)C2COc3ccccc3O2)sc2c1CCCC2 (stereo not drawn) | inconclusive: 23.1 µM [activator, partial curve, poor fit] | 
35 | COc1cccc(CNC(=O)CCN2C(=O)[C@@H]3Cc4ccccc4CN3C2=O)c1 | inactive | 
36 | Clc1ccc(OCCOCCOc2cccc3cccnc23)c(Br)c1 | inconclusive: 18.4 µM [activator, single point] | 
37 | CCOC(=O)c1cnc2c(cnn2CC)c1NN=C(C)C | inconclusive: 33.5 µM [activator, single point] | 
38 | CCc1ccc(Nc2n[n+](-c3ccccc3)c(-c3c(Cl)cccc3Cl)s2)cc1 | inconclusive: 20.6 µM [activator, single point] | 
39 | Cc1ccc(S(=O)(=O)N(Cc2ccccc2)Cc2ccco2)cc1 | inconclusive: 29.1 µM [activator, single point] | 
40 | COC(=O)c1ccc(C(=O)NC(=S)Nc2ccc3nc(SC)sc3c2)cc1 | inconclusive: 2.91 µM [activator, partial curve, poor fit] | 
41 | O=C(NC12CC3CC(CC(C3)C1)C2)c1ccc(-c2cccc(Cl)c2)o1 | inconclusive: 29.1 µM [activator, single point] | 
42 | CC(NC(=O)c1ccccc1F)c1nnc(SCC(=O)NC2=NCCS2)n1C (stereo not drawn) | inactive | 
43 | CN(CCc1ccccc1)C(=O)c1ccc(NC(=O)Cc2cccc(NC(=O)C3CCN(C(=O)c4ccccc4)CC3)c2)cc1 | inactive | 
44 | CS(=O)(=O)N1CCC(C(=O)NCc2ccc(F)cc2Cl)CC1 | inconclusive: 20.6 µM [activator, single point] | 
45 | Cc1[nH]c2ccccc2c1C(c1ccccn1)N1CCC(C)CC1 (stereo not drawn) | inactive | 
46 | Cc1sc2ncn(CC(=O)N3CCN(c4ccccn4)CC3)c(=O)c2c1S(=O)(=O)N1CCC(C)CC1 | inactive | 

Row | Compound | Potency | activity, positive = re-replication
47 | Cc1cccc(-n2c(SCC(N)=O)nc3c(c2=O)C2(CCCC2)Cc2ccccc2-3)c1 | inactive | 
48 | CCN(CC)c1ccc(/C=N/OCC(=O)N2CCCc3ccccc32)cc1 | active: 16.4 µM | 
49 | COc1cc(-c2c(C#N)c(N)nc3c2c(C)nn3-c2ccc(C)c(C)c2)cc(OC)c1OC | inconclusive: 29.1 µM [activator, single point] | 
50 | CCOC(=O)c1sc2ncnc(Nc3cccc(C(=O)O)c3)c2c1C | inactive | 
51 | CC1Cc2ccccc2N1C(=O)COC(=O)c1c2c(nc3ccccc13)CCCCC2 (stereo not drawn) | active: 20.6 µM | 
52 | O=C(CN1C(=O)c2ccccc2C1=O)Nc1ccc(-c2nc3ccccc3o2)cc1 | inconclusive: 29.1 µM [activator, single point] | 
53 | COc1ccccc1NC(=O)Nc1nc2ccc(S(N)(=O)=O)cc2s1 | inconclusive: 32.6 µM [activator, partial curve, poor fit] | 
54 | Cc1ccc(C)c(NC(=S)Nc2cccc3cnccc23)c1 | inconclusive: 29.1 µM [activator, single point] | 
55 | CC(=O)NC(c1ccccc1)c1cc([N+](=O)[O-])c2cccnc2c1O (stereo not drawn) | inconclusive: 32.6 µM [activator, partial curve, poor fit] | 
56 | C=CC[C@@H](CC(=O)N(CCO)Cc1ccccc1)C(=O)N[C@H](COC(=O)[C@@H](CC=C)CC(=O)OC(C)(C)C)Cc1c[nH]c2ccccc12 | active: 10.3 µM | 
57 | Cc1ccc(-c2nnn(CC(=O)N3CCCCC3)n2)cc1 | inconclusive: 4.61 µM [activator, partial curve, poor fit] | 
58 | COc1ccc(C(=O)/C=C/c2ccccc2F)c(OC(=O)c2ccc([N+](=O)[O-])cc2)c1 | active: 14.6 µM | 
59 | O=Cc1ccc([B-](F)(F)F)s1 | inconclusive: 0.92 µM [activator, full curve, poor fit] | 
60 | CCOC(=O)c1cc(-c2ccccc2)nc2c(O)cccc12 | inactive | 
61 | CN1C(=O)c2cccc3c(S(=O)(=O)Nc4ccccc4F)ccc1c23 | inconclusive: 29.1 µM [activator, partial curve, poor fit] | 
62 | CCCCn1c(N)c(N(CCOC)C(=O)CN2C(=O)C3CCCCC3C2=O)c(=O)[nH]c1=O (stereo not drawn) | inactive | 
63 | Cc1ccc(C(=O)OCC(=O)Nc2cc(C(C)(C)C)no2)c(C)c1 | inconclusive: 29.1 µM [activator, single point] | 
64 | CC(=O)N1CCOc2ccc(S(=O)(=O)N3CCN(c4cc(C)ccc4C)CC3)cc21 | inconclusive: 18.4 µM [activator, partial curve, poor fit] | 
65 | CC(Cn1nnc2ccccc21)C(=O)O (stereo not drawn) | inconclusive: 29.1 µM [activator, single point] | 
66 | CC(=O)N1CCN(c2ccc(NCc3ccc(-c4cccc(Cl)c4)o3)cc2)CC1 | active: 20.6 µM | 
67 | Cn1nnnc1Sc1ncnc2scc(-c3cccc(Br)c3)c12 | inconclusive: 3.66 µM [activator, partial curve, poor fit] | 
68 | Cc1cc2c(=O)n(Cc3ccco3)c(SCC(=O)N3CCCc4ccccc43)nc2s1 | inactive | 
